Source: PubChem BioAssay AID624417 (National Center for Advancing Translational Sciences (NCATS), 2012)
The campaign covered roughly 410,000 compounds. About 6,400 (1.6%) were called active. Inconclusive means that the source gave no clear call. Such entries were picked first, then a sample of the others. Calls follow the shape of the dose curve; as a rule, active = well fitted inhibition curve with a large enough effect; inconclusive = small, poorly fitted or top-dose-only effect; inactive = no such curve, though single readings can be large or run the other way. Where the call is inconclusive, the potency comes from a doubtful curve fit.

Target: Glucagon-like peptide 1 receptor (Homo sapiens) (UniProt P43220)
Experiment: qHTS of GLP-1 Receptor Inverse Agonists (Inhibition Mode); also: nearly all actives have a fitted effect of over 55% in size
Conditions: HEK293 GLP-1R CRE-luciferase, luminescence, 24 h, GLP-1R form is constitutively active; activity change, negative = inhibition: at 38.3 µM (top of the series) unless noted
How it was run: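 HEK293 cells stably co-expressing a cAMP-responsive luciferase reporter and constitutively active GLP-1R were seeded, incubated 12 h, then exposed to compounds for 24 h at 37 C. Luminescence was read 12 min after detection reagent; inverse agonists lower signal.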
% is scaled to controls: 0 for no effect and ±100 for the full control effect; potency is read from the fitted curve at half-maximal effect; tags tell the direction and shape of the fitted curve.

UniProt P43220, sequence (P43220 whole entry, looked up): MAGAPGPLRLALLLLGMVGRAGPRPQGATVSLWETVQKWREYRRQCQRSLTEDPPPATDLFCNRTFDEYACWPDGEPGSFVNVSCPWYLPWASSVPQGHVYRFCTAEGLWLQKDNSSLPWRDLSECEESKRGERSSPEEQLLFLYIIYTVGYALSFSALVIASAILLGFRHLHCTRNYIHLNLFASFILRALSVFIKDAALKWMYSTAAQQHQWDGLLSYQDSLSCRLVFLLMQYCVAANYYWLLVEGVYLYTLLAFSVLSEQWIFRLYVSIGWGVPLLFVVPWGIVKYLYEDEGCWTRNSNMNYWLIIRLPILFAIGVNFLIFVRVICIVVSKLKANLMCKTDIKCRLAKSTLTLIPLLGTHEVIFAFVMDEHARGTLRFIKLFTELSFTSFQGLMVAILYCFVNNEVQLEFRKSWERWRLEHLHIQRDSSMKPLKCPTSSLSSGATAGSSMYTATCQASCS

SMILES	Potency	activity change, negative = inhibition
CN1/C(=C\C(=O)COc2ccc3c(c2)OCO3)C(C)(C)c2ccccc21	inconclusive: 7.94 µM [inhibitor, partial curve, poor fit]	
COc1ccc(N(Cc2cccs2)C(=O)COc2ccc([N+](=O)[O-])cc2)cc1	inconclusive: 11.2 µM [inhibitor, partial curve, poor fit]	
CCOC(=O)[C@]12CCCC=C1N(Cc1cccc3ccccc13)C(=O)[C@H](CC(=O)N1CCSCC1)C2	inconclusive: 10 µM [inhibitor, partial curve, poor fit]	
O=C(NC(=S)Nc1ccc(Br)cc1)C1CCCCC1	inconclusive: 1.78 µM [inhibitor, full curve, poor fit]	
CCN(Cc1ccccc1)C(=O)c1cc2ccc3cccnc3c2[nH]1	inconclusive: 20 µM [inhibitor, single point]	
CCCNS(=O)(=O)c1ccc(Oc2ncc(C(F)(F)F)cc2Cl)cc1	active: 11.2 µM	
Cc1ccc2sc(N(CCCN(C)C)C(=O)c3ccc(S(=O)(=O)N(C)Cc4ccccc4)cc3)nc2c1C	inconclusive: 6.31 µM [inhibitor, partial curve, poor fit]	
CC(=O)OCC(=O)C1CCC2C3CC=C4CC(O)CCC4(C)C3CCC12C (stereo unspecified)		inactive: 4.45%
O=S(=O)(/C=C/c1ccccc1)Nc1ccc(F)cc1		inactive: -7.07%
COc1ccc([C@@H]2[C@@H]3C(=O)N(C(C)(C)C)C(=O)[C@@H]3[C@]3(CC(C)C)C(=O)N(c4cccc(Br)c4)C(=O)N23)cc1	inconclusive: 3.98 µM [inhibitor, full curve, poor fit]	
Cc1ccccc1-n1nnnc1Sc1nnnn1-c1ccccc1	inconclusive: 5.01 µM [inhibitor, full curve, poor fit]	
Cc1ccc(-c2noc(-c3ccno3)n2)cc1		inactive: 9.13%
O=C(NCc1ccc(Cl)cc1Cl)C1CCN(S(=O)(=O)c2ccc3c(c2)OCCCO3)CC1	active: 7.94 µM	
Cc1ccc(CNC(=O)c2cnn3c(C)c(Cc4c(F)cccc4Cl)c(C)nc23)cc1		inactive: -23.5%
COc1cc(C(F)(F)F)nc2ccc(C#CCOC(=O)Nc3ccccc3)cc12	inconclusive: 28.2 µM [inhibitor, single point]	
CCC1CN(C(=O)N2CCC(C(=O)NCc3ccc(OC)cc3OC)CC2)c2ccccc2O1 (stereo unspecified)	inconclusive: 1 µM [inhibitor, full curve, poor fit]	
COc1cc(/C=C(\C#N)C(=O)Nc2ccccc2)ccc1OCCN1CCOCC1	inconclusive: 2.24 µM [inhibitor, full curve]	
CCc1ccc(C(=O)NNc2ccc(S(N)(=O)=O)cc2)cc1	inconclusive: 8.91 µM [inhibitor, partial curve, poor fit]	
CN1CCN(c2ccc(NC(=O)c3ccc4c(c3)[nH]c(=O)n4Cc3ccc(F)cc3)cc2)CC1	inconclusive: 10 µM [inhibitor, partial curve]	
CCCOc1c(Br)cc(/C=N/O)cc1OC	inconclusive: 10 µM [inhibitor, single point]	
CCOc1cc(CNCCc2c[nH]c3ccccc23)cc(Cl)c1OCC(N)=O	inconclusive: 11.2 µM [inhibitor, partial curve, poor fit]	

SMILES	Potency	activity change, negative = inhibition
Cc1ccc(C)c(N2CCN(C(=O)c3cc4ccccc4oc3=O)CC2)c1	inconclusive: 12.6 µM [inhibitor, partial curve, poor fit]	
O=C1CN(C(=O)c2ccc(S(=O)(=O)N3CCCC3)cc2)C(c2ccc(F)cc2)c2cc(F)ccc2N1 (stereo unspecified)		inactive: -5.87%
O=C(CSc1ccc(Cl)cc1)NC1CC1		inactive: 2.92%
COc1ccc(N(C(=O)c2ccc(C)cc2)S(=O)(=O)c2ccc(Cl)cc2)cc1	inconclusive: 14.1 µM [inhibitor, partial curve, poor fit]	
Clc1ccccc1-c1cc2nc(NCc3ccco3)ccn2n1	inconclusive: 28.2 µM [inhibitor, single point]	
CCn1c(=N)n(CC(=O)c2ccc(OC)cc2)c2ccccc21	inconclusive: 20 µM [inhibitor, single point]	
C=CCn1c(-c2cc(-c3ccccc3)sc2N)n[nH]c1=S		inactive: -2.04%
CCN(c1ccccc1)S(=O)(=O)c1nnc(NC(=O)C(C)Oc2ccccc2)s1 (stereo unspecified)	inconclusive: 10 µM [inhibitor, single point]	
COc1ccc(Nc2ccccc2N)cc1		inconclusive: -49.5% [inhibitor] [at 7.66 µM]
O=C(NCC1CCN(Cc2ccc(F)cc2)CC1)Nc1cc(F)ccc1F	inconclusive: 31.6 µM [inhibitor, partial curve, poor fit]	
O=C1COc2ccc(C(=O)COC(=O)/C=C/c3ccco3)cc2N1		inactive: -0.519%
N#Cc1c(-c2ccccc2F)cc(C2CC2)nc1SCC(=O)c1cccs1	inconclusive: 6.31 µM [inhibitor, partial curve, poor fit]	
COc1ccccc1-c1noc(CCC(=O)Nc2cccc(C)c2)n1		inactive: -18.4%
Cc1cc(N2CCOCC2)nc(SCc2ccc(Cl)cc2Cl)n1	inconclusive: 28.2 µM [inhibitor, single point]	
O=c1cc2oc3cc(O)c(O)cc3c(-c3ccccc3[N+](=O)[O-])c-2cc1O	inconclusive: 11.2 µM [inhibitor, partial curve, poor fit]	
Cc1ccccc1Nc1c(-c2ccccc2O)nc2sccn12	inconclusive: 12.6 µM [inhibitor, single point]	
COc1cc2c(cc1OC(C)=O)C(=O)CCCC2		inactive: 19.8%
COCCNC(=O)C1(C)CCCN(Cc2cc(-c3ccccc3)on2)C1 (stereo unspecified)	inconclusive: 3.55 µM [inhibitor, partial curve, poor fit]	
CCn1c(COc2cccc(OC)c2)nnc1SCC(=O)Nc1cccc(OC)c1	inconclusive: 28.2 µM [inhibitor, single point]	
O=C(c1cc(-c2ccc(Cl)cc2)on1)N(Cc1ccc(F)cc1)Cc1ccco1	inconclusive: 2.82 µM [inhibitor, partial curve, poor fit]	
